This note sets out measurements from ChEMBL document CHEMBL1201862, “PubChem BioAssay data set” (2004).

Structures are written as SMILES.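 Tested at 5 concentrations; 48 h exposure; 96-well plates; endpoints linearly interpolated, else capped at highest concentration. Abbreviation: GI50, concentration required for 50% inhibition of growth.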 Activity calls are given as the source filed them. No stated cut-off is given here; in the data, active = GI50 up to about 1.1 µM and inactive = higher.

This experiment deals with NCI-H322M. The experiment can be described thus: NCI anticancer screen, dose series, 48 h.
Regarding `CC(C)(C)c1ccc(OCC(=O)O)c(Cl)c1`, the GI50 was inactive: > 100 µM.
Take `C[C@]12CC[C@@H]3c4ccc(O)cc4CC[C@H]3[C@@H]1C/C(=C\c1ccncc1)[C@@H]2O`: the GI50 is inactive: 23.9 µM.
On to `Cc1cc(OCC(=O)O)c(Cl)cc1Cl`, for which the GI50 is inactive: > 100 µM.
In the case of `COC(=O)C1(C)NCCc2c1[nH]c1ccccc21` (stereo not given), the GI50 was inactive: > 100 µM.
For `Cc1cc(NS(=O)(=O)c2ccc(Nc3c4ccccc4nc4c(C(=O)NCCO)cccc34)cc2)no1`, the GI50 is inactive: 25.5 µM.
For the molecule `COC(=O)[C@@H]1CN(C(C)=O)C(=O)N1C(=O)OCc1ccccc1`, the GI50 is inactive: > 100 µM.
Then `CC(C)CCC/C(CBr)=C(\Cl)CCl`, with inactive: 14.3 µM; and `CC(C)(C)/N=c1/n(C(C)(C)C)oc(=O)n1-c1ccccc1`, with inactive: > 50 µM.
As to `C[P+]1(Cc2ccccc2)CCCC1`, the GI50 is inactive: > 100 µM.
Consider `NS(=O)(=O)c1nnc(NC(=S)NC(=O)Nc2ccc(Cl)c(Cl)c2)s1`, for which the GI50 was inactive: 21.9 µM.
For `O=C(NCC1Nc2ccncc2S(=O)(=O)N1)c1ccc(Br)cc1` (stereo not given), the GI50 is inactive: > 100 µM.
For `CCOc1ccccc1/N=N/C1C(=O)N(C(=O)CC(=O)Nc2ccccc2C)N=C1C` (stereo not given), the GI50 was inactive: 75.3 µM.
`c1ccc(CCCCNCc2cc(CNCCCCc3ccccc3)cc(CNCCCCc3ccccc3)c2)cc1`: the GI50 is inactive: 1.34 µM.
Regarding `Cc1cc(-c2cscn2)c(O)c([N+](=O)[O-])c1`, the GI50 was inactive: 77.1 µM.
Turning to `CCCCCCCCCCSC(=O)NC`, the GI50 is inactive: > 100 µM.
In the case of `Nc1ccccc1C(=O)C(Br)C(Br)c1ccc2c(c1)OCO2` (stereo not given), the GI50 is inactive: 36.6 µM.
On to `[O-][S+](Nc1ccccc1)c1cccc(Cl)c1` (stereo not given), for which the GI50 is inactive: 64 µM.
Regarding `CSc1ncc2c(n1)-c1ccccc1OC2`, the GI50 was inactive: 48.2 µM.
Regarding `O=C(O)CCC1CCc2cccc(OCC(=O)O)c2C1=O` (stereo not given), the GI50 was inactive: > 100 µM.
On to `CCC(/C=C/c1ccccc1)=N\NC(=S)N/N=C(/C=C/c1ccccc1)CC`, for which the GI50 was inactive: > 100 µM.
Under `O=C(N/N=C\c1ccc(Cl)cc1)Nc1ccc2ccccc2c1` stands inactive: > 100 µM; under `NC1CC(=O)c2cc(Br)sc21` (stereo not given), inactive: > 100 µM.
Then `CCOP(=O)(OCC)/C(C#N)=C/c1ccc[nH]1`, with inactive: 74.1 µM; and `O=C1Nc2ccccc2S/C1=C\c1ccccc1C(F)(F)F`, with inactive: > 100 µM; and `CCOP(=O)(OCC)/C(C#N)=C/c1ccccn1`, with inactive: > 100 µM.
Take `CC(=O)C1=CSC2[C@H](NC(=O)Cc3ccccc3)C(=O)N2C1C(=O)OC(c1ccccc1)c1ccccc1` (stereo not given in full): the GI50 is inactive: > 100 µM.
For `FC(F)(F)c1ccc2c(c1)nc(Cc1ccccc1)n2C[C@@H]1CCCN2CCCCC12` (stereo not given in full), the GI50 was inactive: 15.1 µM.
Consider `C=C1C(=O)OC2CC1C(OC(=O)/C=C/c1ccccc1)C/C(C)=C/CC/C(C)=C/CCC2(C)O` (stereo not given), for which the GI50 was inactive: 3.98 µM.
Then `O=C1CNc2cc(N3CCOCC3)ccc2N1`, with inactive: > 100 µM.
Under `O=c1[nH]nc(-c2ccccc2)n1Nc1ccccc1` stands inactive: > 100 µM; under `CCOc1ccc(/N=C/c2cccc3cccnc23)cc1`, inactive: > 100 µM; under `COC(=O)c1ccccc1C1=C([N+](=O)[O-])C(c2cccc(Br)c2)C(C#N)=C(N)O1` (stereo not given), inactive: > 100 µM.
For `NC1N=Nc2ccccc21` (stereo not given), the GI50 was inactive: > 100 µM.
Turning to `N#CCCN(CCC#N)c1ccc(C(/N=N/c2ccccc2)=N\c2ccccc2)cc1`, the GI50 is inactive: > 100 µM.
Consider `Nc1nc2c(ncn2C2CCC(CO)O2)c(=O)n1C(=O)c1ccccc1` (stereo not given), for which the GI50 was inactive: > 100 µM.
For the molecule `CCCCN(CC)C(=O)C1=C(C)NC(C)=C(C(=O)N(CC)CCCC)C1`, the GI50 is inactive: > 100 µM.
As to `N/N=C1\C(=O)N(CCc2ccccc2)C(=O)C1C(=O)NCCc1ccccc1` (stereo not given), the GI50 is inactive: > 100 µM.
On to `C[N+]12CCCCC1C(CN1C(=O)c3ccccc3C1=O)CCC2` (stereo not given), for which the GI50 is inactive: > 100 µM.
Under `COc1ccccc1C1C(Cl)C(=O)N1NC(=O)Cc1ccccc1` (stereo not given) stands inactive: > 100 µM; under `Cc1ccc2c(c1)CC1(Cc3ccccc3C1=O)C2=O` (stereo not given), inactive: > 100 µM.
In the case of `CCCc1nc(N)nc(C(=O)Nc2cccc(C(F)(F)F)c2)c1CC`, the GI50 was inactive: > 100 µM.
Under `Clc1ccc(Nc2nnc(CCCCCCCCc3nnc(Nc4ccc(Cl)cc4)o3)o2)cc1` stands inactive: 37 µM.
For `Cc1ccc(C(=O)C(C)N)cc1` (stereo not given), the GI50 is inactive: > 100 µM.
Take `C=C1C(=O)O[C@H]2[C@H]3O[C@@H](C[C@@H]12)[C@](C)(O)CCCC(C)=CCC[C@H]3C`: the GI50 is inactive: 19.6 µM.
For the molecule `COCC1OC(Sc2ccccc2)C(O)C(OC)C1OC` (stereo not given), the GI50 is inactive: > 100 µM.
In the case of `COC(=O)C1(C(=O)OC)N=C(C)OC1c1ccoc1` (stereo not given), the GI50 is inactive: > 100 µM.
On to `OCc1ccc2c(c1)CC1(C2)Cc2cc3c(cc2C1O)CCC3` (stereo not given), for which the GI50 was inactive: 9.33 µM.
Consider `O=C(O)c1oc2ccc([N+](=O)[O-])c3c2c1CCC3`, for which the GI50 was inactive: > 100 µM.
As for `N#Cc1nc(C(=O)c2ccccc2)oc1N`, the GI50 is inactive: > 100 µM.
Under `C=C1C(=O)OC2C1C(OC(=O)/C(C)=C\C)CC1(CO1)C1C(O)C=C(C)C21O` (stereo not given) stands inactive: 24.7 µM; under `COC(=O)C(=O)C(C(=O)C(=O)Nc1cccc(OC)c1)c1nc2ccc(Cl)cc2nc1O` (stereo not given), inactive: > 100 µM; under `COc1cc2oc3c(c(=O)c2c(O)c1/C=C/C(C)C)CCC(C)(C)Oc1cc(O)ccc1-3`, inactive: 23.7 µM.
`C[N+](C)(C)CC1CCC/C1=N/O` (stereo not given): the GI50 is inactive: 1.85 µM.
On to `Cn1c2ccccc2c2nc3ccccc3c(Cl)c21`, for which the GI50 is inactive: > 100 µM.
Regarding `c1ccc(OCCSCCCCCCCCCCSCCOc2ccccc2)cc1`, the GI50 was inactive: 39.4 µM.
On to `C(=C\c1ccccc1)/C=N/c1nc2cc3sc(/N=C/C=C/c4ccccc4)nc3cc2s1`, for which the GI50 was inactive: > 72.8 µM.
Take `CC1(C)C(=O)C(C)(C)C12SSC1(S2)C(C)(C)C(=O)C1(C)C`: the GI50 was inactive: > 100 µM.
In the case of `C=CC1(CC[C@]2(c3ccc(OC)c(OC)c3)C=[N+]([O-])O[C@H](O[C@@H]3CCCC[C@H]3C(C)(C)c3ccccc3)C2)OCC(C)(C)CO1`, the GI50 was inactive: 33.3 µM.
In the case of `C=CCc1cccc2cc(C(=O)Nc3ccccn3)c(=N)oc12`, the GI50 was inactive: > 100 µM.
Consider `C[C@H]1CC[C@@H]2[C@@H](C)[C@H]3[C@H](C[C@H]4[C@@H]5CC=C6C[C@@H](O)CC[C@]6(C)[C@H]5C[C@H](O)[C@]34C)N2C1`, for which the GI50 was inactive: > 100 µM.
For the molecule `Oc1cccnc1/C=N/OCc1ccccc1`, the GI50 is inactive: > 100 µM.
Then `N=C1/C(=C/c2ccco2)C(=O)N=C2SC=NN12`, with inactive: > 100 µM; and `COC(=O)C1=C(C[S+]([O-])c2ccc([N+](=O)[O-])cc2[N+](=O)[O-])ON(C)C1c1ccccc1` (stereo not given), with inactive: > 100 µM; and `COC(=O)C1=NN2c3ccccc3CN([C@@H](C)c3ccccc3)C(=O)[C@H]2[C@@H]1C`, with inactive: 61.2 µM.
Take `N#CC1(C#N)C2CCCCC23OC(=N)C1(C#N)C(c1ccco1)O3` (stereo not given): the GI50 is inactive: > 100 µM.
Regarding `COC(=O)C1CCC(=O)C(Sc2ccccc2)C1` (stereo not given), the GI50 is inactive: > 100 µM.
Consider `CC(=O)NCCC1CNc2ccccc21` (stereo not given), for which the GI50 was inactive: > 100 µM.
Turning to `COc1cccc(/C=N/n2c(Cc3ccc(Cl)cc3)n[nH]c2=O)c1`, the GI50 was inactive: > 94.6 µM.
Under `CN(/N=C/c1ccnc2ccccc12)c1ccc([N+](=O)[O-])cc1[N+](=O)[O-]` stands inactive: 46.2 µM; under `CC1=C(C(=O)c2ccccc2)C23C(=O)N(c4ccccc4)C(=O)C2=C(O)C=CC3(O)N1` (stereo not given), inactive: > 100 µM; under `COc1ccc2c3c(coc13)C(CCC(=O)O)CC2` (stereo not given), inactive: > 100 µM.
Consider `COC(=O)C1CC(C(=O)OC)c2nc3cc(C)ccc3nc21` (stereo not given), for which the GI50 was inactive: > 100 µM.
Turning to `O=C(O)/C=C/c1ccc(OS(=O)(=O)O)cc1`, the GI50 is inactive: > 100 µM.
In the case of `C=C(CCCCCCCCC)CC(=O)SCCNC(=O)CCNC(=O)C(O)C(C)(C)COP(=O)(O)OP(=O)(O)OCC1OC(n2cnc3c(N)ncnc32)C(O)C1OP(=O)(O)O` (stereo not given), the GI50 is inactive: > 89.5 µM.
In the case of `CC(C)CC12CC3CCC(CNC1=O)C32C` (stereo not given), the GI50 was inactive: > 100 µM.
Take `COC(=O)[C@@H]1[C@H](O)[C@H](C)[C@H](O)[C@H](C)/C=C\C=C(\C)C(=O)Nc2c(C)c(OC(C)=O)c3c(c2O)C(=O)C(C)=C2OCOC(=C23)/C(C)=C/[C@@H](O)[C@H](O)[C@@H](C)[C@H]1OC(C)=O`: the GI50 is inactive: > 100 µM.
On to `O=C(NCCCn1ccnc1[N+](=O)[O-])C(=O)NCCCn1ccnc1[N+](=O)[O-]`, for which the GI50 was inactive: > 100 µM.
For the molecule `COC(=O)C(COC(=O)/C=C/c1ccc(OC(C)=O)c(OC(C)=O)c1)NC(=O)/C=C/c1ccc(OC(C)=O)c(OC(C)=O)c1` (stereo not given), the GI50 is inactive: 24.8 µM.
Then `O=C(NN1C(=O)C(Cl)C1c1c(O)ccc2ccccc12)c1ccccc1O` (stereo not given), with inactive: > 100 µM; and `CC(N/N=C(\S)N1CCCCCC1)c1cccnn1` (stereo not given), with active: 0.394 µM.
Under `Cc1ccc2c(O)cc(-c3sc4ccccc4c3C)nc2n1` stands inactive: 31.2 µM; under `Cc1cc(S(=O)(=O)Nc2nnc3c(Cl)cc(C(F)(F)F)cn23)c(S)cc1Cl`, inactive: 40.5 µM.
`Oc1ccc(-c2nc3cc(C(F)(F)F)ccc3s2)cc1`: the GI50 is inactive: 15.3 µM.
As for `CC(C)C[C@H](NC(=O)[C@H](Cc1ccc(F)cc1)NC(=O)c1ccccn1)B(O)O`, the GI50 was active: < 0.0103 µM.
On to `COc1cc(CC(=O)c2ccc3c(c2)OCO3)cc(OC)c1OC`, for which the GI50 is inactive: > 100 µM.
